{
  "source": "PubChem BioAssay AID504832",
  "about": "(National Center for Advancing Translational Sciences (NCATS), 2011)",
  "note": "The whole screen tested about 310,000 compounds, of which about 18,000 (5.8%) were called active. This list was built around the results that the source calls inconclusive (neither active nor inactive); the mix of calls is not that of the screen. The call rests on the fitted dose curve; in most records, active means well fitted inhibition curve with a large enough effect; inconclusive means small, poorly fitted or top-dose-only effect, or another doubt; inactive means no such curve, though single readings can be large or run the other way. No potency is given beside an inconclusive call; the fits are too rough. On the % scale 0 is the no-effect control and ±100 the full control effect; potency means the concentration at half of the fitted maximal effect; tags describe the fitted curve by direction and shape.",
  "data": [
    {"experiment": "Primary qHTS for delayed death inhibitors of the malarial parasite plastid, 48 hour incubation", "settings": "P. falciparum luciferase growth in erythrocytes; series mostly up to 28.7 µM; activity change, negative = inhibition: at the top concentration", "how_it_was_run": "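Parasite viability was followed by luminescence of a genomically integrated firefly luciferase. Cultures held 0.1% parasitemia at 2% hematocrit (final), incubated under 5% CO2 at 37 C.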", "values": [
      {"smiles": "COc1cc(CNCc2ccccn2)ccc1OCc1ccc(Cl)cc1", "Potency": "inconclusive [inhibitor, single point]"},
      {"smiles": "CC1(C)Cc2cccc(OCC(=O)NCc3cccs3)c2O1", "Potency": "inconclusive [inhibitor, single point]"},
      {"smiles": "Cc1c(C(=O)c2ccc(Cl)cc2Cl)cnc2cc3c(cc12)OCO3", "Potency": "active: 8.28 µM"},
      {"smiles": "O=C(CN1C(=O)COc2ccccc21)N1CCc2ccccc21", "activity change, negative = inhibition": "inactive: -12.9%"},
      {"smiles": "c1ccc(-c2csc(-n3cnnn3)n2)cc1", "activity change, negative = inhibition": "inactive: 27.3%"},
      {"smiles": "COc1ccc(OCC(=O)N2CCC3(CC2)CC(=O)c2ccccc2O3)cc1", "Potency": "inconclusive [inhibitor, single point]"},
      {"smiles": "COc1ccc(Oc2nc3c(C)cccn3c(=O)c2/C=C(\\C#N)C(N)=O)cc1", "Potency": "inconclusive [inhibitor, single point]"},
      {"smiles": "CSC1=C(C#N)C(c2ccccc2Cl)C(C(C)=O)=C(C)N1", "note": "(centres undefined)", "Potency": "inconclusive [inhibitor, single point]"},
      {"smiles": "COc1ccc(CNC(=O)/C=C/c2ccc(OCCCF)cc2)cc1", "Potency": "inconclusive [inhibitor, single point]"},
      {"smiles": "CCN(CC)c1ccc(/C=N/N(c2ccccc2)c2ccccc2)c(O)c1", "Potency": "inconclusive [inhibitor, single point]"},
      {"smiles": "COc1ccc(C2(CNC(=O)c3cc([N+](=O)[O-])cc([N+](=O)[O-])c3)CCCC2)cc1OC", "Potency": "inconclusive [inhibitor, single point]"},
      {"smiles": "O=C(NCc1ccccc1)C(c1ccc(F)cc1)N(Cc1ccc2c(c1)OCO2)C(=O)Cn1nnc(-c2cccs2)n1", "note": "(centres undefined)", "Potency": "active: 10.4 µM"},
      {"smiles": "Cc1coc(C)c1C(=O)CC1(O)C(=O)N(C)c2ccc(Cl)cc21", "note": "(centres undefined)", "Potency": "inconclusive [inhibitor, partial curve, poor fit]"},
      {"smiles": "O=C(CN1CCC(NC(=O)c2cccc(F)c2)CC1)NCc1ccccc1F", "Potency": "inconclusive [inhibitor, partial curve]"},
      {"smiles": "N#Cc1cc2c(=O)n3ccccc3nc2n(-c2ccccc2Cl)c1=O", "activity change, negative = inhibition": "inactive: 5.85%"},
      {"smiles": "Cc1ccccc1NC(=O)CCS(=O)(=O)c1ccc(Br)cc1", "activity change, negative = inhibition": "inactive: 10.3%"},
      {"smiles": "COc1cccc(N2CCN(C(=O)c3ccc(CS(=O)Cc4ccc(Cl)cc4)o3)CC2)c1", "note": "(centres undefined)", "activity change, negative = inhibition": "inactive: -16.9%"},
      {"smiles": "O=C(N/N=C/c1ccc2c(c1)OCO2)c1ccc2ccccc2n1", "activity change, negative = inhibition": "inactive: 12.7%"},
      {"smiles": "CSCCC(NS(=O)(=O)c1ccc(C)cc1)C(=O)Nc1ccc(C)cn1", "note": "(centres undefined)", "activity change, negative = inhibition": "inactive: -17.3%"},
      {"smiles": "CC(=O)c1ccc(N2CCN(C(=O)C3CCN(S(=O)(=O)Cc4ccccc4)CC3)CC2)cc1", "Potency": "inconclusive [inhibitor, full curve, poor fit]"},
      {"smiles": "N#Cc1ccc(-c2nc3cc(C#N)c(C#N)cc3nc2-c2ccccc2)cc1C#N", "Potency": "inconclusive [inhibitor, single point]"},
      {"smiles": "Cc1ccc(CNC(=O)C2CN(S(C)(=O)=O)c3cc(Cl)ccc3O2)cc1", "note": "(centres undefined)", "activity change, negative = inhibition": "inactive: -42.9% [at 1.15 µM]"},
      {"smiles": "COc1ccc(C(=O)c2cn(CC(=O)Nc3cc(OC)cc(OC)c3)c3ccc(OC)cc3c2=O)cc1", "activity change, negative = inhibition": "inactive: -6.36%"},
      {"smiles": "COc1ccc2cc3cc(C(=O)Nc4ccc5c(c4)OCCO5)oc3nc2c1", "Potency": "inconclusive [inhibitor, full curve]"},
      {"smiles": "COc1ccc(/C=C/C(=O)Nc2ccc(NC(C)=O)cc2)cc1S(=O)(=O)N1CCOCC1", "Potency": "inconclusive [inhibitor, single point]"},
      {"smiles": "Cc1ccc2c(c1)C1(C)C(C(C)(C)N2C=O)C1(Cl)Cl", "note": "(centres undefined)", "Potency": "inconclusive [inhibitor, partial curve]"},
      {"smiles": "O=C(c1ccc(Cl)cc1)C1CCCN(Cc2cccc3cccnc23)C1", "note": "(centres undefined)", "Potency": "active: 9.28 µM"},
      {"smiles": "NC1=NC(=O)N2CC12", "note": "(centres undefined)", "Potency": "inconclusive [inhibitor, single point]"},
      {"smiles": "COc1ccc(Cl)cc1N(CC(=O)NCC(C)C)S(=O)(=O)c1ccc(C)c([N+](=O)[O-])c1", "activity change, negative = inhibition": "inactive: -11.6%"},
      {"smiles": "FC(F)Sc1nc2ccccc2[nH]1", "activity change, negative = inhibition": "inactive: 20.9%"},
      {"smiles": "CCOC(=O)N1CCN(C(=O)c2cn(CCOC)c(=O)c3c2c2ccccc2n3C)CC1", "Potency": "inconclusive [inhibitor, single point]"},
      {"smiles": "COC(=O)C1=CN(Cc2ccc(OC)c(OC)c2)C=C(C(=O)OC)C1c1ccc(F)cc1", "Potency": "inconclusive [inhibitor, single point]"},
      {"smiles": "CN(C)S(=O)(=O)c1ccc(NC(=O)COc2cccc3c2OC(C)(C)C3)cc1", "Potency": "inconclusive [inhibitor, partial curve, poor fit]"},
      {"smiles": "CCn1cc(C(=O)NCCN(CC(C)C)CC(C)C)c(=O)c2cc(S(=O)(=O)N3CCOCC3)ccc21", "Potency": "inconclusive [inhibitor, single point]"},
      {"smiles": "Cc1ccc(CN2CCc3c(OCC(=O)Nc4cc(C)ccc4C)cccc3C2=O)cc1", "Potency": "inconclusive [inhibitor, single point]"},
      {"smiles": "COc1cccc(CN2CCN(C(=O)Cc3ccccc3OC)CC2)c1", "activity change, negative = inhibition": "inactive: -12.8%"},
      {"smiles": "CCCOc1ccc(/C=N/Nc2cc(N3CCOCC3)ncn2)c(O)c1", "Potency": "active: 2.08 µM"},
      {"smiles": "O=C(NC1CCCCC1)c1ccc(CNc2nc(=S)[nH]c3ccccc23)cc1", "Potency": "inconclusive [inhibitor, single point]"},
      {"smiles": "CC(C)(C)c1ccc(CN2N=Nc3ccccc3S2(=O)=O)cc1", "Potency": "inconclusive [inhibitor, full curve, poor fit]"},
      {"smiles": "COc1ccc(Cl)cc1C(=O)O/N=C(\\N)c1ccncc1", "Potency": "inconclusive [inhibitor, partial curve, poor fit]"},
      {"smiles": "O=C(O)/C=C/C(=O)Nc1ccccc1C(=O)Nc1ccccc1", "Potency": "inconclusive [inhibitor, partial curve]"},
      {"smiles": "CC(=O)Nc1ccc(S(=O)(=O)N(C)c2ccc(OCC(=O)Nc3ccccc3C(C)=O)cc2)cc1", "Potency": "inconclusive [inhibitor, single point]"},
      {"smiles": "O=[N+]([O-])c1ccc2c(c1)c1ccccc1n2CCO", "Potency": "inconclusive [inhibitor, partial curve]"},
      {"smiles": "Cc1cc(C)n(C(=O)c2cccc(S(=O)(=O)N3CCOCC3)c2)n1", "Potency": "inconclusive [inhibitor, partial curve, poor fit]"}
    ]}
  ]
}
